Tested on: MB49 tumors
Assay: MB49 murine bladder tumor model, efficacy and pharmacodynamics
Format: in vivo, C57/BL6-huCTLA4 mice
Protocol: Efficacy and pharmacodynamics (PD) of anti-CTLA4 antibodies were assessed using the MB49 murine bladder tumor model. Efficacy was assessed by administering each test antibody (RSV-m control antibody, ipilimumab, Antibody 2-6, Antibody 2-14, and Antibody 2-15) and then assessing tumor volume and body weight. The anti-RSV control antibody contains S239D and I332E mutations (RSV-m control antibody). Peripheral immunophenotyping was also carried out on day 5, which assessed the percentage of CD4+Ki67+ cells and the percentage of CD4+ICOS+ cells in the peripheral blood on day 5 following administration. As used herein, dosing in mg/kg is also referred to as “mpk.” MB49 cells were inoculated subcutaneously into C57/BL6-huCTLA4 mice. Treatment started when the tumors reached approximately 350 mm^3. A One-way ANOVA with Dunnett's post-test was performed to determine the statistical significance of treatment vs control (RSV-m control). *P<0.05; **P<0.01; ***P<0.001; ****P<0.0001.
Pharmacodynamics is assessed by administering antibody to each of five cohorts of mice, with dosing (mg/kg) as shown in Table 16. Immunophenotyping among other readouts are performed in the tumor, liver, spleen, and blood. T cells are assessed by measuring Foxp3+CD25+ cells as a percentage of CD4+ cells, and CD8+ cells are measured as a percentage of CD45+ cells. Cleavage and drug levels in tumors, liver, kidney, spleen, and plasma is also assessed.

B1: Antibody 2-14: masked Antibody 2-6: mask CPGKGLPSC, cleavable peptide VPLSLY; SEQ ID NO: 358 and 421 (protein)
light: ACPGKGLPSCGGGSSGGSGVPLSLYSGGEIVLTQSPDFQSVTPKEKVTITCSANSALSYMYWYQQKPDQSPKLWVHGTSNLASGVPSRFSGSGSGTDFTLTINSLEAEDAATYYCHHWSNTQWTFGGGTKVEIKRTVAAPSVFIFPPSDEQLKSGTASVVCLLNNFYPREAKVQWKVDNALQSGNSQESVTEQDSKDSTYSLSSTLTLSKADYEKHKVYACEVTHQGLSSPVTKSFNRGEC
heavy: QVQLVQSGAEVKKPGSSVKVSCKASGYTFTNYFMNWVRQAPGQGLEWMGRVDPEQGRADYAEKFKKRVTITADKSTSTAYMELSSLRSEDTAVYYCARRAMDNYGFAYWGQGTLVTVSS[human IgG1 constant region with changes left out here]
For B1, the “CD8/Treg ratios in tumors” value (3 mg/kg, day 7) was “highest CD8/Treg ratios”, the tumor weight (3 mg/kg, day 7) was “lowest tumor weights” and the “T-cell activation (CD4+Ki67+ and CD4+ICOS+ cells in peripheral blood)” value (day 5, 10 mg/kg versus ipilimumab at 3 mg/kg) was “lower T-cell activation”. The “Regulatory T cell depletion and CD8+ T cell activation in the tumor microenvironment” value (mouse, in vivo) was “is observed”.

Reference: patent publication US20220073613A1, “ACTIVATABLE MASKED ANTI-CTLA4 BINDING PROTEINS” (Xilio Development, Inc., priority 2018, published 2022)
